These results are taken from PubChem BioAssay AID463173 (ICCB-Longwood Screening Facility, Harvard Medical School, 2010).

The campaign covered roughly 52,000 compounds. About 1,700 (3.3%) were called active. Cut-off read from the data, not from the text of the source: active = survival mostly below about 52% (no sharp cut-off); inactive = mostly above about 56%. Some of the results follow.

For the assay, the system named is Wild type. Description: growth inhibition of S. aureus wild type versus tarO mutant, primary screen, teichoic acid synthesis inhibitors, RN4220, OD600 (AID 463173). The settings on record: S. aureus RN4220 wild type/DeltatarO growth, OD600, 18 h, active compounds read low, screened at 18.75 µg/mL (by protocol).
`Cc1ccc(OCC(=O)NCC(=O)OCc2cc(=O)n3nc(CC(C)C)sc3n2)cc1`: the survival is inactive: 143%.
Under `CCc1ccccc1NC(=O)C1CCCN(S(=O)(=O)c2ccc3[nH]c(=O)ccc3c2)C1` (stereo unspecified) stands inactive: 107%.
Under `O=C(c1cccs1)N1CCCc2cc(NS(=O)(=O)c3cc(F)ccc3F)ccc21` stands inactive: 89%; under `O=C(NCCc1ccc(Cl)cc1)c1cnc2sc(N3CCCC3)nn2c1=O`, inactive: 64%.
With `CC(=O)c1cccc(NC(=O)CCn2nc(C)c(S(=O)(=O)N3CCCCC3)c2C)c1`, the survival is inactive: 159%.
With `COc1ccc(CNC(=O)CN2C(=O)COc3ccccc32)c(OC)c1`, the survival is inactive: 72%.
Take `Cc1ccc2nc(NC(=O)CSc3cc(C)[nH]c(=O)n3)sc2c1`: the survival is inactive: 85%.
Under `Oc1ccccc1-c1nc2cnccn2c1Nc1ccc(Cl)cc1` stands active: -16%; under `O=C(N1CCC(n2cnc3cccnc32)CC1)N1c2ccccc2Sc2ccccc21`, inactive: 119%.
Under `CC(=O)c1ccc(NC(=O)C2CCN(S(=O)(=O)c3c(C)noc3/C=C/c3ccc(C)cc3)CC2)cc1` stands inactive: 66%; under `CC(=O)N(C)c1nc(-c2ccccc2)cs1`, inactive: 103%; under `CCOc1ccc(CNC(=O)CCCn2c(=O)c3cccn3c3cccnc32)cc1`, inactive: 117%.
Turning to `CCOc1ccc(C(=O)N2CCc3cc(OC)c(OC)cc3C2COc2ccc3c(C)cc(=O)oc3c2)cc1OCC` (stereo unspecified), the survival was inactive: 69%.
Under `O=C(CSc1nc2ccccc2n1CC(=O)N1CCCC1)Nc1ccccc1` stands inactive: 109%.
Under `CCCOc1ccc(OC(=O)c2ccc(-c3ccc(CCC)cn3)cc2)cc1` stands inactive: 77%.
Consider `O=S(=O)(NCCc1csc(-c2cccc(F)c2)n1)c1cc(F)ccc1F`, for which the survival was inactive: 83%.
Under `Cc1ccccc1Cn1c(SCc2ccc(C(=O)N3CCCCC3)cc2)nc2ccncc21` stands inactive: 90%; under `CCn1c(C(=O)Nc2ccccc2C(=O)OC)cc2sc(Cl)cc21`, inactive: 43%; under `COC(=O)c1c(NC(=O)CCCOc2ccc(C)cc2)sc2c1CCCC2`, active: 3%.
Under `COc1cc(NC(=O)CCNC(=O)Cn2ccc3ccccc3c2=O)cc(OC)c1OC` stands inactive: 69%; under `COc1ccc(CCNC(=O)c2cc(Nc3ccccc3)nc3ccccc23)cc1OC`, inactive: 152%; under `O=C1CCc2cc(S(=O)(=O)NCc3ccccc3)cc3c2N1CC3`, inactive: 72%.
Under `Cc1ccc(NC(=O)Cn2c(=O)n(Cc3ccc(F)cc3)c(=O)c3cccnc32)cc1C` stands inactive: 82%.
`O=C(Nc1ccc(S(=O)(=O)N(Cc2ccccc2)c2ccccc2)cc1)c1ccccc1F`: the survival was inactive: 82%.
In the case of `CCCCSc1ncc(C(=O)OCC)c(N)n1`, the survival was inactive: 100%.
Under `Cc1nc2c(c(C)nn2-c2ccccc2)c(C)c1CCC(=O)Nc1ccccc1` stands inactive: 87%.
On to `COC(=O)c1ccccc1NC(=O)CCCn1c(C)c2cnn(-c3ccccc3)c(=O)c2c1C`, for which the survival was inactive: 82%.
Consider `CCCn1ccc2c(OCC(=O)Nc3ccccc3C(=O)OCC)cccc2c1=O`, for which the survival was inactive: 75%.
Under `O=C(CCCCn1c(=O)c2ccccc2n(Cc2ccc(F)cc2Cl)c1=O)NCCc1ccc(Cl)cc1` stands inactive: 99%; under `N=c1c(C(N)=O)cc2c(=O)n3ccccc3nc2n1Cc1ccccc1`, inactive: 99%.
Under `O=C(Nc1ccccc1C(=O)NCc1ccccc1)c1ccco1` stands inactive: 112%; under `CCOc1ccc(CCNC(=O)C2Cc3ccccc3N2C(=O)CC)cc1` (stereo unspecified), inactive: 84%.
Under `CCOC(=O)c1ccc(Nc2c(-c3ccc(OC)cc3)nc3nc[nH]n23)cc1` stands inactive: 79%; under `COc1ccc(CNC(=O)CC(C)CC2=NS(=O)(=O)c3ccccc3N2)cc1` (stereo unspecified), inactive: 124%; under `Cc1ccccc1Cn1c(=O)n(Cc2ccco2)c(=O)c2sc3ccccc3c21`, inactive: 83%.
As to `CCOc1ccc(S(=O)(=O)Nc2ccc3c(c2)CCCN3C(=O)c2cccs2)cc1`, the survival is inactive: 71%.
Under `COc1ccccc1CNC(=O)Cc1c(C)c2cc3c(C)coc3c(C)c2oc1=O` stands inactive: 84%; under `CCOC(=O)c1cc2c(=O)n3ccccc3nc2n(CCCOC)c1=NC(=O)c1c(-c2c(F)cccc2Cl)noc1C`, inactive: 70%.
Regarding `CCC(=O)N1CCc2cc(CNC(=O)Nc3cc(OC)c(OC)c(OC)c3)ccc21`, the survival is inactive: 127%.
Take `CCN(CC)C(=O)C1=C(C)Nc2nc3ccccc3n2C1c1ccccc1F` (stereo unspecified): the survival was inactive: 143%.
On to `CC1Cc2ccccc2N1C(=O)Cn1nc(-c2nccc3ccccc23)oc1=O` (stereo unspecified), for which the survival is inactive: 97%.
Under `COc1ccc(Cl)cc1NC(=O)Cn1c(=O)n(-c2ccc(C)cc2)c(=O)c2ccc(C(=O)NCc3ccccc3Cl)cc21` stands inactive: 84%.
As to `O=C(Cc1ccc(NC(=O)N2CCCCc3ccccc32)cc1)NCc1cccc(Br)c1`, the survival is inactive: 77%.
Under `CC(=O)Nc1ccc2c(c1)S(=O)(=O)c1cc(NC(C)=O)ccc1-2` stands inactive: 104%; under `Cc1cccc(N2CCN(C(=O)Cn3c(C)c4cnn(-c5ccccc5)c(=O)c4c3C)CC2)c1C`, inactive: 89%; under `Cc1nnc(SCc2cc(=O)c3cc(F)ccc3[nH]2)n1C`, inactive: 70%.
Consider `CCCCn1c(SCc2ccccc2C)nc2ccsc2c1=O`, for which the survival was inactive: 136%.
`COc1ccc(CNC(=O)C(=O)NCC(c2ccco2)S(=O)(=O)c2cccs2)cc1` (stereo unspecified): the survival was inactive: 47%.
Under `C=C(C)Cn1c(SCC(=O)c2ccc(Br)cc2)nc2sc3c(c2c1=O)CCCC3` stands inactive: 76%; under `CC1=C(C#N)C(NC(=O)c2ccccc2)(C(F)(F)F)C(=O)N1` (stereo unspecified), inactive: 85%; under `Cc1ccc(NC(=O)c2ccc3c(O)c(S(=O)(=O)c4ccc(Cl)cc4)c(=O)[nH]c3c2)cc1`, inactive: 119%.
Under `CCOC(=O)C1CCCN(C(=O)Cn2ncc3c(C)n(Cc4ccc(Cl)cc4)c(C)c3c2=O)C1` (stereo unspecified) stands inactive: 87%; under `Cc1ccc(NS(=O)(=O)c2ccc3c(c2)CCN3C(=O)C2CC2)c(C)c1`, inactive: 63%; under `Cc1ccc(S(=O)(=O)c2nc(-c3cccs3)oc2SCc2ccc(F)cc2)cc1`, inactive: 68%.
As for `CC(C)c1ccccc1NC(=O)C(Cc1c[nH]c2ccccc12)NC(=O)OC(C)(C)C` (stereo unspecified), the survival was inactive: 116%.
Under `COCCn1c(CNC(=O)c2cccc(C)c2)nc2cccnc21` stands inactive: 78%.
